Assay results published in PubChem BioAssay AID1963831 (Molecular Pharmacology Branch, DTP, NCI, 2024).
The source holds more than one record for some entries. This list holds those alone. There may be further records. Results that share an entry repeat one measurement (runs, samples, wells, individuals or studies). Marks such as (2×) count equal records among those shown.

Test system: 889142-216-R-J1-PDC complex spheroid viability
Test: Anticancer human tumor 889142-216-R-J1-PDC patient-derived bladder carcinoma cell line growth inhibition [POLQ]
Details: for viability, T/C: stronger effect = lower value
Procedure: Multicellular complex tumor spheroid response to Polymerase (POL) inhibitors (novobiocin, ART-558, RP6685) in combination with a variety of drugs and investigational agents in selected tumor cell lines
The POL inhibitors (novobiocin, ART-558, and RP6685) were evaluated both individually and in combination with standard of care and investigational anticancer small molecules within a complex spheroid model of solid tumors. . Complex spheroids include a stromal component modeled by human endothelial cells (HUVEC) and fibroblasts modeled by human mesenchymal stem cells (MSCs). The concentration ranges selected for each drug and investigational agent were based upon clinically achievable concentrations if the clinical Cmax of the agent was known.
Compounds. The drugs and investigational agents: novobiocin (NSC847541), ART-558 (NSC835418), RP-6685 (NSC848927), peposertib (NSC802822), ceralasertib (NSC780249), elimusertib (NSC800525), camonsertib (NSC841442), AZD-1390 (NSC803789), olaparib (NSC753686), talazoparib (NSC767125), rucaparib (NSC756644), sotorasib (NSC818433), MRTX-1133 (NSC836407), SN-38 (NSC673596), topotecan (NSC609699), epotoside (NSC141540), doxorubicin (NSC123127), gemcitabine (NSC613327), 5-fluorouracil (NSC19893), paclitaxel (NSC125973), vemurafenib (NSC761431), MSA-2 (NSC828583), SN-011 (NSC837082), adavosertib (NSC754352), prexasertib (NSC758257), carboplatin (NSC241240) and oxaliplatin (NSC266046), were obtained from the National Cancer Institute (NCI) Developmental Therapeutics Program Chemical Repository (21). The FDA-approved anticancer drug set is available from the Developmental Therapeutics Program at https://dtp.cancer.gov/organization/dscb/obtaining/. […] The stock solutions were prepared in dimethyl sulfoxide (DMSO, Sigma-Aldrich, St. Louis, MO, cat. D2650), except for the platinum compounds which were prepared in saline (Quality Biological, Gaithersburg, MD, cat. 114-055-101), at 800-fold the tested concentration and stored at -70 degrees C prior to their use. All drugs and investigational agents were tested over a range starting from a high concentration at or near the clinical Cmax and decreasing in half-log increments. If the clinical Cmax for an agent had not been determined, the highest concentration tested was 10 microM, except for SN-38, which was tested at a high concentration of 1 microM.
Cell Culture. All cells were maintained in an incubator at 37 degrees C and 5% CO2 with 95% humidity. The PDC lines were cultured according to standard operating procedures established by the NCI PDMR (https://pdmr.cancer.gov). Table 3 of the manuscript, lists the cell lines along with the number of the three cell types plated to form the mct-spheroids and media for tumor cell growth. After thawing, all PDC lines, except 997537-175-T-J1-PDC and 415267-285-R-J2-PDC, were cultured in Matrigel-coated flasks prepared with a working solution of 1X Ham's F-12 nutrient mix, without supplementation (Thermo Fisher Scientific, cat. 11765054), 100 U/mL penicillin-streptomycin (Thermo Fisher Scientific, cat. 15140122), and 2.5% Matrigel (Corning Inc., Corning, NY, cat. 354248) for the first three passages. The two PDC lines 997537-175-T-J1-PDC and 415267-285-R-J2-PDC were cultured on uncoated flasks. The 857933-349-R-J2-PDC line was cultured in 6C/Colon 1B media containing advanced DMEM/F-12 (Thermo Fisher Scientific, cat. 12634028), 10 mM HEPES (Thermo Fisher Scientific, cat. 15630080), 1X GlutaMAX supplement (Thermo Fisher Scientific, cat. 35050061), 0.1 mg/mL primocin (InvivoGen, San Diego, CA, cat. ant-pm-2), 10% defined fetal bovine serum, heat inactivated (HyClone Laboratories Inc., Logan, UT, cat. SH30070.03HI), 50% L-WRN conditioned media (ATCC, cat. CRL-3276), 1.25 mM N-Acetyl-L-cysteine (Sigma-Aldrich, cat. A9165), 10 mM nicotinamide (Sigma-Aldrich, cat. N0636), 1X B-27 supplement (Thermo Fisher Scientific, cat. 17504044), 1X N-2 supplement (Thermo Fisher Scientific, cat. […]
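Note: spheroids exposed to compounds for seven days.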
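Throughout, for viability, T/C: 100% = DMSO vehicle control viability.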

SMILES | IC50 (compound alone) | viability, T/C (compound alone 0.1 µM) | viability, T/C (compound alone 1 µM) | viability, T/C (compound alone 3.16 µM) | viability, T/C (compound alone 10 µM) | viability, T/C (compound alone 0.0316 µM) | viability, T/C (compound alone 0.316 µM)
CC(=O)O[C@H]1C(=O)[C@@]2(C)[C@H]([C@H](OC(=O)c3ccccc3)[C@]3(O)C[C@H](OC(=O)[C@H](O)[C@@H](NC(=O)c4ccccc4)c4ccccc4)C(C)=C1C3(C)C)[C@]1(OC(C)=O)CO[C@@H]1C[C@@H]2O | < 9.49 nM, 423 nM, > 3 µM |  |  |  |  |  | 
COC1C(OC(N)=O)C(O)C(Oc2ccc3c(O)c(NC(=O)c4ccc(O)c(CC=C(C)C)c4)c(=O)oc3c2C)OC1(C)C (centres undefined) |  | 113, 105, 108, 110 (2×), 112, 92.5, 103, 90.3, 101, 115, 87% | 97.1, 110, 92.2, 102, 111, 104, 101 (2×), 93.6, 85.7, 90.9, 88.4% | 88.9, 97.6, 107 (2×), 98.9, 92.9, 110, 108, 93.2, 94.2, 84, 94.8% | 80.8, 109, 98.7, 84.1, 88.5, 97, 98.2, 96.8, 108, 97.8, 105, 95.4% |  | 
Nc1ccc(C#CCN(C(=O)Cc2ncc(C(F)(F)F)cc2C(F)(F)F)c2ccc(F)cc2)nn1 |  |  | 107 (2×), 89.9, 101, 114, 94.7, 95.4, 108, 98.3, 115, 106, 91.6, 90.5% | 81.6, 91.2, 134, 119 (2×), 105 (2×), 118, 97, 81.7, 101, 99.8, 111% |  | 86.2, 85.6, 103, 96.9, 88.1, 78.5, 98.5, 89.4, 86.8, 92.1, 105, 93.2% | 103, 91.5, 94.2 (2×), 97.5, 120, 104 (3×), 111, 79.6, 92, 101%
Cc1cccc(N(C)C(=O)C2C(O)CCN2c2nc(C)cc(C(F)(F)F)c2C#N)c1 (centres undefined) |  | 89.4, 97.2, 103, 101, 89.8, 111, 97.3, 93.5, 97.4, 89.1, 123, 102, 88.9% | 87.4, 102, 88.9, 105, 80.1, 94.8 (2×), 93, 90.7, 72.7, 104, 93.5, 77.7% |  | 91.9, 89.3, 87.2, 77.7, 75, 81.2, 84.3, 79.2, 88.3, 83.2, 80.1, 98.7, 103% | 102 (2×), 119, 95.8, 94.3 (2×), 103, 93.9, 89, 76.9, 84.6, 90.5, 90.3% | 111, 110, 83.7, 107, 100, 94, 105, 88.5, 101, 91.8, 74, 88.9, 83.5%
